Sequences and labels used below:
B1: PhoQ; a variant is named by its letters at X, in order, P23837 (parent)
chain: MKKLLRLFFPLSLRVRFLLATAAVVLVLSLAYGMVALIGYSVSFDKTTFRLLRGESNLFYTLAKWENNKLHVELPENIDKQSPTMTLIYDENGQLLWAQRDVPWLMKMIQPDWLKSNGFHEIEADVNDTSLLLSGDHSIQQQLQEVREDDDDAEMTHSVAVNVYPATSRMPKLTIVVVDTIPVELKSSYMVWSWFIYVLSANLLLVIPLLWVAAWWSLRPIEALAKEVRELEEHNRELLNPATTRELTSLVRNLNRLLKSERERYDKYRTTLTDLTHSLKTPLXXLQXXLRSLRSEKMSVSDAEPVMLEQISRISQQIGYYLHRASMRGGTLLSRELHPVAPLLDNLTSALNKVYQRKGVNISLDISPEISFVGEQNDFVEVMGNVLDNACKYCLEFVEISARQTDEHLYIVVEDDGPGIPLSKREVIFDRGQRVDTLRPGQGVGLAVAREITEQYEGKIVAGESMLGGARMEVIFGRQHSAPKDE

Our source for the enrichment ratio values is a collection of fitness landscapes (doi:10.1126/science.1257360).

The other results are listed elsewhere or left out.

In the experiment the parent is B1. Nature of the experiment: enrichment ratio after two sorts for PhoP signalling (ratio (wild type AVST 3.29)); higher = more functional. To be noted: with PhoP (E. coli).
Regarding LGTH, the enrichment ratio was ≤ 0.25. Take LVQD: the enrichment ratio is ≤ 0.25. The result for FTGI reads ≤ 0.25; that for PVYE, ≤ 0.25. The result for DRYQ reads ≤ 0.25. Take HQSG: the enrichment ratio was ≤ 0.25. The result for PASK reads ≤ 0.25; that for LPLS, ≤ 0.25. As for SKFS, the enrichment ratio was ≤ 0.25.

With IKPK, the enrichment ratio was ≤ 0.25. CLVM: the enrichment ratio was ≤ 0.25. In the case of GPHG it was ≤ 0.25; in that of VNLN, 2.67. In the case of QTYF it was 9.42. For HTAI, the enrichment ratio is ≤ 0.25. In the case of YESL it was ≤ 0.25.

Turning to KDGV, the enrichment ratio is ≤ 0.25. Consider SWYD, for which the enrichment ratio is ≤ 0.25. In the case of WPRH it was ≤ 0.25. In the case of NEPN it was ≤ 0.25. FYRI: the enrichment ratio was ≤ 0.25.

Take DLNF: the enrichment ratio was ≤ 0.25. In the case of GSQR it was ≤ 0.25; in that of HTYN, ≤ 0.25; in that of DYWN, ≤ 0.25. In the case of NIHT it was ≤ 0.25; in that of MDFM, ≤ 0.25.

In the case of SSFN, the enrichment ratio came to 0.377.

For QQRW, the enrichment ratio is ≤ 0.25. The result for LVLV reads ≤ 0.25. The result for QTYY reads ≤ 0.25; that for QQQK, ≤ 0.25; that for AHCT, ≤ 0.25. The result for YDYR reads ≤ 0.25; that for KGYL, ≤ 0.25. For the variant KESK, the enrichment ratio is ≤ 0.25. Take RCGV: the enrichment ratio is ≤ 0.25. For YCTR, the enrichment ratio is ≤ 0.25. On to ETYC, for which the enrichment ratio is ≤ 0.25.

In the case of QGMT, the enrichment ratio is ≤ 0.25. The result for PNPA reads ≤ 0.25. The result for WMRD reads ≤ 0.25; that for SSKH, ≤ 0.25; that for WNMT, ≤ 0.25. In the case of QNDF it was ≤ 0.25; in that of VHSR, ≤ 0.25.

As to NRPA, the enrichment ratio is ≤ 0.25.

In the case of PGLM, the enrichment ratio is ≤ 0.25. In the case of DWNH it was ≤ 0.25; in that of DSYH, ≤ 0.25. For the variant KKWI, the enrichment ratio was ≤ 0.25.

VTPQ: the enrichment ratio is ≤ 0.25. With FASL, the enrichment ratio was ≤ 0.25. In the case of LPHC it was ≤ 0.25.

Consider LHQQ, for which the enrichment ratio is ≤ 0.25. In the case of HRVM it was ≤ 0.25; in that of CIWL, ≤ 0.25; in that of YYQG, ≤ 0.25.

GFEI: the enrichment ratio is ≤ 0.25. Take PCLA: the enrichment ratio was ≤ 0.25.

With YRRQ, the enrichment ratio is ≤ 0.25. In the case of GDKF it was ≤ 0.25; in that of GCCV, ≤ 0.25; in that of RVDY, ≤ 0.25.

For HQPS, the enrichment ratio was ≤ 0.25. In the case of AEFH it was 1.2; in that of FWNM, ≤ 0.25. The result for ARTM reads 0.376; that for IVML, ≤ 0.25. For GLAM, the enrichment ratio came out at 10.7. Take GPIS: the enrichment ratio was ≤ 0.25. In the case of RPRE it was ≤ 0.25. For YAAK, the enrichment ratio is ≤ 0.25. In the case of VEPH it was ≤ 0.25. The result for PGNW reads ≤ 0.25; that for NWLS, ≤ 0.25; that for YHGG, ≤ 0.25. In the case of NIRW it was ≤ 0.25. Consider ASCV, for which the enrichment ratio turned out to be 18.9. The result for MPLD reads ≤ 0.25; that for GKMH, ≤ 0.25; that for WDLQ, ≤ 0.25.

On to DEVQ, for which the enrichment ratio was ≤ 0.25. The result for VDIM reads ≤ 0.25; that for RCSV, ≤ 0.25; that for VIWA, ≤ 0.25. In the case of TIGA it was 9.59. The result for QKLQ reads ≤ 0.25; that for NFIE, ≤ 0.25. Consider DVCV, for which the enrichment ratio is ≤ 0.25. The result for DVGS reads ≤ 0.25. The result for RFFC reads ≤ 0.25; that for MMKC, ≤ 0.25. On to LRRN, for which the enrichment ratio was ≤ 0.25.

Regarding WKFV, the enrichment ratio is ≤ 0.25. The result for SSML reads 23.6.

NSCC: the enrichment ratio is ≤ 0.25. The result for FDSM reads ≤ 0.25; that for QMGD, ≤ 0.25.

Take MIYN: the enrichment ratio was 9.42.

As for DEGI, the enrichment ratio is ≤ 0.25. As to NQFN, the enrichment ratio was ≤ 0.25.

As for QSFA, the enrichment ratio worked out at 2.36. The result for PFSA reads ≤ 0.25; that for HYQR, ≤ 0.25. Regarding INGE, the enrichment ratio was ≤ 0.25. The result for SIPG reads ≤ 0.25; that for TVGG, 16.2. The result for NRSH reads ≤ 0.25.

Consider SAYI, for which the enrichment ratio came out at 0.312. In the case of YARN it was ≤ 0.25; in that of VGNG, ≤ 0.25.

For the variant NSKL, the enrichment ratio was ≤ 0.25. In the case of RTSD it was ≤ 0.25; in that of INQW, ≤ 0.25. The result for WLHH reads ≤ 0.25; that for ANAT, 17.7. Regarding SISE, the enrichment ratio turned out to be 12.6. In the case of NRSK it was ≤ 0.25; in that of FKVS, ≤ 0.25.

Consider SMEI, for which the enrichment ratio is ≤ 0.25.

For the variant FFSF, the enrichment ratio was ≤ 0.25. The result for QDFE reads ≤ 0.25; that for RKDK, ≤ 0.25. In the case of YCPK it was ≤ 0.25; in that of TQQT, 6.08; in that of LIYA, ≤ 0.25. The result for HSCV reads 0.501; that for CLIS, ≤ 0.25. Turning to HSAK, the enrichment ratio was ≤ 0.25. In the case of GSRP it was ≤ 0.25; in that of FFQG, ≤ 0.25; in that of YAIP, ≤ 0.25. The result for PAHI reads ≤ 0.25; that for NTMH, ≤ 0.25; that for MVMR, ≤ 0.25. In the case of KSST it was ≤ 0.25. Consider LKWN, for which the enrichment ratio is ≤ 0.25. The result for REVG reads ≤ 0.25; that for PVWQ, ≤ 0.25; that for VRIH, ≤ 0.25.

For MYEF, the enrichment ratio was ≤ 0.25. The result for KFDM reads ≤ 0.25. The result for WWVW reads ≤ 0.25; that for SELY, 11.4. Turning to TNSN, the enrichment ratio is 10.4. Take FDCS: the enrichment ratio is ≤ 0.25. The result for RFGF reads ≤ 0.25. For the variant KMTG, the enrichment ratio was ≤ 0.25. As to ANQG, the enrichment ratio was ≤ 0.25. For the variant QSCM, the enrichment ratio is 3.65.

As to EDML, the enrichment ratio is ≤ 0.25. In the case of RKFE it was ≤ 0.25.
